This is one part of the list. The full chains were built here from the parent and the listed change. Inactive controls read about 0.05.
B1: TEV protease; numbered along this chain (parent)
chain: MGESLFKGPRDYNPISSSICHLTNESDGHTTSLYGIGFGPFIITNKHLFRRNNGTLVVQSLHGVFKVKDTTTLQQHLVDGRDMIIIRMPKDFPPFPQKLKFREPQREERICLVTTNFQTKSMSSMVSDTSCTFPSGDGIFWKHWIQTKDGQCGSPLVSTRDGFIVGIHSASNFTNTNNYFTSVPKNFMELLTNQEAQQWVSGWRLNADSVLWGGHKVFMVKPEEPFQPVKEATQL

Variants of: B1
Assay: raw area under fraction-flipped curve 0-4 h after induction (AUC4h, not background-subtracted), DNA-recorder readout of cleavage of the substrate (dimensionless); higher = more cleavage of the substrate by the protease variant
Conditions: temperature: 34 °C; time window: 0-4 h after rhamnose induction
Experimental: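 In vivo DNA recorder in E. coli TOP10(DE3) ΔrhaA at 34 °C. Each TEVp single-site mutant (parent TEVp 0) is paired with a single-site variant of the 7-mer TEVs (canonical ENLYFQ|S). The substrate sits between flexible linkers in a Bxb1-sfGFP-TEVs-SsrA fusion, so cleavage stabilises Bxb1 and speeds flipping of a recombination array, read by NGS. The value is the raw area under the fraction-flipped curve over 0-4 h after rhamnose induction (AUC4h), with ≥20 reads per time point. It is not background-subtracted; inactive controls average about 0.047.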
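Also: Bxb1 expression induced with 0.2% (w/v) L-rhamnose at OD600 near 0.5, cultures sampled hourly, flipped fraction per protease–substrate barcode pair counted by paired-end Illumina sequencing.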

Row | Variant | area with substrate ENLYFQC | area with substrate ENLYFQD | area with substrate ENLYFQG | area with substrate ENLYFQK | area with substrate ENLYFQP | area with substrate ENLYFQS | area with substrate ENLYFQT | area with substrate ENLYFQF | area with substrate ENLYFQI | area with substrate ENLYFQL
1 | L235F | 0.145 | 0.0865 | 0.0743 | 0.0464 | 0.0476 | 0.0981 | 0.0699 | – | – | –
2 | L235P | 0.118 | 0.0706 | 0.128 | – | – | 0.112 | 0.0563 | 0.087 | 0.0398 | 0.0641
3 | E103M | 0.117 | 0.0805 | 0.0825 | 0.0445 | – | 0.0971 | 0.0666 | 0.0709 | 0.06 | 0.0518
4 | E103D | 0.108 | 0.0696 | – | – | 0.0562 | 0.106 | 0.0595 | – | – | 0.0729
5 | T147V | 0.0851 | 0.0582 | 0.0962 | – | – | 0.0914 | – | – | 0.0542 | –
6 | W212N | 0.0835 | – | 0.0792 | – | – | 0.0844 | – | – | 0.0157 | –
7 | D82M | – | 0.0824 | – | – | – | 0.0526 | – | – | 0.0406 | –
8 | D82V | 0.0487 | – | 0.0732 | – | 0.0644 | 0.0525 | – | – | – | –
9 | S60G | 0.0842 | – | – | – | – | 0.0924 | 0.0567 | – | – | –
10 | V165I | 0.118 | – | 0.0661 | – | – | 0.102 | 0.0908 | – | – | –
11 | L191Q | 0.0689 | – | – | – | 0.0607 | 0.063 | 0.0695 | – | 0.0585 | 0.0449
12 | V229D | 0.151 | – | – | 0.0621 | – | 0.111 | – | – | – | –
13 | N175Q | 0.128 | – | – | 0.0513 | 0.0526 | 0.108 | – | – | 0.0568 | –
14 | K142N | 0.116 | – | 0.102 | – | – | 0.0934 | 0.065 | – | 0.0567 | 0.0514
15 | S209N | 0.063 | – | 0.0923 | 0.0728 | 0.0571 | 0.0975 | – | 0.0771 | 0.0571 | 0.0582
16 | Q194C | 0.101 | 0.0441 | 0.135 | 0.0663 | 0.0589 | 0.124 | – | – | 0.0455 | 0.0568
17 | T129D | – | 0.0585 | – | – | 0.0615 | 0.102 | 0.0661 | 0.0946 | 0.0592 | –
18 | L156Y | 0.0632 | – | – | 0.0652 | 0.0542 | 0.0625 | 0.0612 | – | 0.0378 | –
19 | V78I | – | 0.0599 | – | 0.0706 | – | 0.107 | – | – | – | 0.0293

Row | Variant | area with substrate ENLYFQC | area with substrate ENLYFQD | area with substrate ENLYFQG | area with substrate ENLYFQK | area with substrate ENLYFQP | area with substrate ENLYFQS | area with substrate ENLYFQT | area with substrate ENLYFQF | area with substrate ENLYFQI | area with substrate ENLYFQL
20 | F163M | – | 0.062 | – | – | – | 0.116 | 0.0531 | 0.104 | – | –
21 | F163Y | 0.132 | 0.0858 | 0.14 | 0.0625 | – | 0.104 | – | – | 0.0623 | 0.0711
22 | S169K | – | 0.0684 | – | – | – | 0.0472 | – | – | – | 0.0276
23 | K90A | – | 0.0925 | – | – | – | 0.0993 | – | – | – | –
24 | H215L | 0.0787 | 0.0595 | – | 0.0438 | 0.0529 | 0.0819 | 0.059 | 0.0553 | – | 0.0613
25 | N178S | 0.147 | – | 0.0967 | – | 0.0589 | 0.0963 | – | – | – | 0.0511
26 | Y34H | 0.121 | 0.0982 | 0.0998 | – | – | 0.101 | – | – | 0.0526 | –
27 | D128T | 0.168 | 0.0906 | 0.157 | 0.0484 | 0.0186 | 0.124 | – | – | – | 0.0471
28 | V58S | 0.0897 | 0.0618 | 0.0835 | – | – | 0.0829 | 0.0537 | 0.0696 | – | 0.0387
29 | V58L | 0.109 | – | – | – | – | 0.0947 | – | – | – | 0.0653
30 | F218I | – | 0.0651 | – | 0.0695 | – | 0.0906 | 0.0538 | – | – | 0.0569
31 | F117P | 0.0829 | 0.0697 | – | 0.0858 | – | 0.0964 | 0.0643 | – | 0.0614 | –
32 | T115K | 0.103 | – | – | 0.0648 | 0.0621 | 0.107 | 0.059 | – | 0.0585 | 0.0668
33 | T174E | 0.0965 | – | – | 0.0647 | – | 0.0935 | – | – | – | 0.0567
34 | T174C | 0.0774 | – | – | 0.0731 | – | 0.0837 | – | 0.0853 | 0.0602 | 0.0566
35 | T174F | 0.0861 | – | – | – | – | 0.0883 | 0.0703 | – | – | 0.0458
36 | Q198G | 0.102 | 0.0709 | 0.103 | 0.0543 | 0.0779 | 0.0938 | 0.0186 | 0.0744 | – | –
37 | N53L | 0.101 | 0.0945 | – | – | – | 0.0895 | 0.0516 | 0.0793 | – | 0.0509
38 | S121F | 0.114 | – | – | – | 0.081 | 0.1 | – | – | 0.0737 | 0.055

Same assay, conditions: temperature: 34 °C; time window: 0-4 h after rhamnose induction

Row | Variant | area with substrate ENLYFQM | area with substrate ENLYFQW | area with substrate ENLYFQH | area with substrate ENLYFQN | area with substrate ENLYFQR | area with substrate ENLYFQV | area with substrate ENLYFQY | area with substrate ENLYFQQ | area with substrate ENLYFQE
39 | L235P | 0.118 | 0.0628 | – | – | – | – | – | – | –
40 | E103M | 0.0792 | 0.066 | 0.0603 | 0.0737 | 0.0643 | 0.055 | 0.0767 | – | –
41 | E103D | 0.0858 | 0.0502 | 0.0916 | 0.0728 | 0.0656 | – | 0.0644 | – | –
42 | T147V | – | – | 0.0716 | – | 0.067 | – | 0.0652 | – | –
43 | D82M | – | 0.0513 | – | 0.0539 | 0.0594 | 0.0544 | 0.0493 | – | –
44 | D82V | – | 0.0453 | – | 0.0512 | – | – | – | – | –
45 | S60G | 0.0758 | 0.0678 | 0.12 | – | 0.0464 | 0.0603 | – | – | –
46 | V165I | 0.114 | – | – | – | 0.0542 | 0.056 | 0.0776 | – | –
47 | L191Q | 0.0652 | 0.0531 | 0.0464 | 0.0497 | 0.0466 | 0.0757 | – | – | –
48 | V229D | – | – | – | – | 0.0614 | – | – | – | –
49 | N175Q | 0.0828 | 0.0282 | – | 0.0819 | 0.0581 | – | – | – | –
50 | K142N | 0.0779 | – | 0.0741 | 0.0888 | – | 0.0417 | – | – | –
51 | S209N | – | 0.0751 | – | 0.0737 | – | – | 0.0429 | – | –
52 | Q194C | 0.0954 | – | 0.0696 | 0.0877 | 0.0734 | 0.0455 | 0.0715 | 0.0614 | –
53 | T129D | 0.0811 | – | – | 0.0439 | – | 0.0644 | 0.0842 | – | –
54 | L156Y | 0.0547 | 0.0616 | 0.0604 | – | 0.0873 | 0.0616 | 0.059 | – | 0.0447
55 | V78I | – | 0.0705 | 0.087 | 0.119 | – | – | – | – | –
56 | F163M | – | – | – | – | – | 0.0462 | – | – | –

Row | Variant | area with substrate ENLYFQM | area with substrate ENLYFQW | area with substrate ENLYFQH | area with substrate ENLYFQN | area with substrate ENLYFQR | area with substrate ENLYFQV | area with substrate ENLYFQY | area with substrate ENLYFQQ | area with substrate ENLYFQE
57 | F163Y | – | 0.0883 | – | 0.0881 | 0.0742 | – | – | – | –
58 | S169K | – | – | – | 0.0503 | – | – | 0.0379 | – | –
59 | K90A | – | 0.0641 | – | – | – | – | – | 0.0825 | –
60 | H215L | 0.0611 | – | – | 0.0619 | 0.0596 | – | – | – | –
61 | N178S | – | – | – | 0.0882 | – | 0.0673 | – | – | –
62 | Y34H | – | 0.0642 | – | – | – | – | – | – | –
63 | D128T | – | 0.0642 | – | – | – | 0.0534 | – | – | –
64 | V58S | – | 0.0474 | 0.07 | 0.0807 | – | 0.0576 | 0.0592 | – | –
65 | V58L | – | – | – | – | 0.06 | – | 0.071 | – | –
66 | F218I | – | 0.0717 | – | – | 0.0476 | – | 0.0592 | – | –
67 | F117P | 0.083 | 0.0562 | – | – | 0.0521 | 0.0608 | – | – | –
68 | T115K | 0.0848 | – | 0.0926 | 0.0863 | 0.0693 | – | – | – | –
69 | T174C | – | – | 0.083 | – | – | – | 0.0593 | – | –
70 | T174F | – | – | 0.0999 | 0.0678 | 0.0675 | – | 0.0604 | – | –
71 | Q198G | – | – | – | – | – | 0.058 | 0.0789 | 0.0603 | –
72 | N53L | – | 0.0602 | – | 0.0662 | 0.0573 | – | 0.109 | – | –
73 | S121F | 0.0924 | – | – | 0.0745 | – | 0.0514 | – | 0.0439 | –

Reference: the supplement of paper PMC12217912
